Measurements: PubChem BioAssay AID1454 (National Center for Advancing Translational Sciences (NCATS), 2008)
Among all 130,000 compounds or so, about 550 (0.42%) were called active. Inconclusive results, whose numbers are uncertain, are shown with a selection of clear calls. Calls follow the shape of the dose curve; as a rule, active = well fitted inhibition curve with a large enough effect; inconclusive = small, poorly fitted or top-dose-only effect, or effect the other way; inactive = flat fitted curve, though single readings scatter. Potencies of inconclusive entries are left out as doubtful fits.

Assay: qHTS Assay for Inhibitors of the ERK Signaling Pathway using a Homogeneous Screening Assay; Stimulation with EGF; also: nearly all actives have a fitted effect of over 55% in size;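 as to activity change, negative = inhibition: plate controls were stimulated vehicle wells for no effect and unstimulated vehicle basal for full effect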
Conditions: HEK293-V1b, EGF-stimulated phospho-ERK AlphaScreen; activity change, negative = inhibition: at the top concentration
In short: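 Readout: AlphaScreen signal for phosphorylated ERK in lysed HEK293 cells stably expressing V1b. Stimulus 25 nM EGF, 5 min, following 30 min compound exposure. Data scaled to DMSO basal and full EGF activation.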
Potency is read from the fitted curve at half-maximal effect; tags tell the direction and shape of the fitted curve.

Compound	Potency	activity change, negative = inhibition
COc1cc2c(cc1OC)C(C)N(C(=O)c1ccc(Br)o1)CC2 (stereo unspecified)	inconclusive [inhibitor, single point]	
O=C(c1cccc(N2C(=O)C3CC=CCC3C2=O)c1)N1CCCCCC1 (stereo unspecified)	inconclusive [inhibitor, single point]	
O=C(O)[C@@H](O)[C@@H](O)[C@@H](O[C@H]1O[C@@H](CO)[C@@H](O)[C@@H](O)[C@@H]1O)[C@@H](O)CO		inactive: 27.4% [at 25.7 µM]
N#C/C(=C\c1ccc(N2CCOCC2)c([N+](=O)[O-])c1)c1nc2ccccc2[nH]1	inconclusive [inhibitor, partial curve]	
CCN(CC)CCOc1ccc(/C(=C(/Cl)c2ccccc2)c2ccccc2)cc1		inactive: 4.78%
O=C(Nc1nc2c(s1)CCCC2)c1nn(Cc2ccccc2)c(=O)c2ccccc12		inactive: -3.26%
COc1ccc(NC(=O)Cc2ccc(C)cc2)c([N+](=O)[O-])c1	inconclusive [inhibitor, partial curve]	
CCC1=C(OC(=O)N(CC)CC)N2C(=O)OC(=NCC3CC3)[C@]2(C)[C@H]2C1=CC[C@H]1C(=O)N(c3ccccc3)C(=O)[C@H]12		inactive: 3.89%
CN1CCN(c2ccccc2NC(=O)c2cc3c(s2)-c2ccccc2OC3)CC1	inconclusive [inhibitor, single point]	
Cc1ccc(N(Cc2cc(=O)[nH]c3ccccc23)C(=O)C(C)C)cc1		inactive: 4.49% [at 57.5 µM]
O=[N+]([O-])c1ccc(N2CCN(c3ccccc3O)CC2)c(Cl)c1		inactive: 21.4%
CCNC(=O)CC1C(=O)N(c2ccc(F)cc2)C(=O)N1Cc1cccs1 (stereo unspecified)		inactive: -4.27%
C/C(=N\NC(=S)NC1CCCCC1)c1c(F)cccc1F		inactive: 0.555%
COC(=O)[C@@]1(Cc2ccccc2)[C@H]2c3cc(C(=O)N4CCCC4)n(Cc4ccc(O)c(OC)c4)c3C[C@H]2CN1C(=O)c1ccccc1		inactive: 2.3%
Cc1cnc(NC(=O)c2ccc(OCC3CCCO3)cc2)s1 (stereo unspecified)		inactive: -0.863%
Cc1cc(NC(=O)c2sccc2C)n(-c2nc3ccccc3[nH]2)n1	inconclusive [inhibitor, single point]	
Cc1nc(N2CCOCC2)nc(N2CCC(C)CC2)c1[N+](=O)[O-]	inconclusive [inhibitor, partial curve]	
Cc1ccc(/C=C2\C(=O)ON=C2c2ccccc2)o1		inactive: 2.04%
O=C(Nc1cccnc1)c1sc2cccc(F)c2c1Cl	inconclusive [inhibitor, partial curve, poor fit]	
Fc1ccc(-c2cc(-c3ccccc3)nc(-n3cccn3)n2)cc1	inconclusive [inhibitor, single point]	
CC(=O)c1ccc(NC(=O)N2CCc3ccccc3C2)cc1	inconclusive [inhibitor, single point]	
Cc1cc(/C=C2/NC(=O)N(Cc3ccccc3F)C2=O)c(C)n1C(C)C	inconclusive [inhibitor, single point]	
CCOC(=O)C1CCCN(c2c(C(=O)c3ccccc3)cnc3ccccc23)C1 (stereo unspecified)	inconclusive [inhibitor, single point]	

Compound	Potency	activity change, negative = inhibition
COC(=O)C1(C)C=C2C(=C(c3ccccc3)C(=O)C2C)CN1 (stereo unspecified)		inactive: 9.71%
CC(=O)Nc1cccc(C(=O)OCC(=O)c2ccccc2Cl)c1		inactive: -3.54%
O=[N+]([O-])c1cccnc1SCc1c(F)cccc1Cl	inconclusive [inhibitor, partial curve, poor fit]	
Cc1[nH]n(-c2ccccc2)c(=O)c1N=Nc1ccc2c(c1)OCO2	inconclusive [inhibitor, full curve]	
CCOC(=O)C1=C(C)C(c2cccc(Oc3ccccc3)c2)NC(=S)N1 (stereo unspecified)		inactive: 5.38%
CN1CCN(C2=Cc3ccc(Cl)cc3Sc3ccc(F)cc32)CC1	inconclusive [inhibitor, single point]	
Cc1cc(C)nc(N/N=C/C2=C(N3CCOCC3)C(=C/c3ccccc3)/CC2)n1	inconclusive [activator, full curve, poor fit]	
CN=c1scc(-c2ccc(OC)cc2)n1/N=C(\C)c1cccnc1	active: 22.4 µM	
CC1(C)CC[C@]2(C(=O)O)CC[C@]3(C)C(=CCC4[C@@]5(C)CC[C@H](O)C(C)(C)C5[C@H](O)C[C@]43C)C2C1 (stereo partly specified)		inactive: 11.5%
COC(=O)c1ccc(C2/C(=C(/O)c3ccc(OC)cc3)C(=O)C(=O)N2Cc2ccco2)cc1 (stereo unspecified)	inconclusive [activator, single point]	
Cn1cccc1/C=C1\SC(=Nc2cccc(O)c2)NC1=O	inconclusive [inhibitor, single point]	
O=C1NC(=O)C(c2ccccc2)(c2ccccc2)N1	inactive	
CC(Oc1ccc(Cl)cc1Cl)c1ccn[nH]1 (stereo unspecified)	inconclusive [inhibitor, partial curve, poor fit]	
CCOC(=O)c1c(-c2cccc([N+](=O)[O-])c2)csc1N	inconclusive [inhibitor, single point]	
O=C(NNc1nc2cc3c(cc2s1)OCO3)c1ccc(F)cc1	inconclusive [inhibitor, partial curve]	
C[C@]12C[C@H](O)C3[C@@H](CCC4=CC(=O)CC[C@@]43C)[C@@H]1CC[C@@H]2C(=O)CO (stereo partly specified)		inactive: 9.66%
N#Cc1nnn(-c2ccc(Cl)cc2)c1N	inactive	
CN1Cc2c(N)cccc2C(c2ccccc2)C1 (stereo unspecified)	inconclusive [activator, full curve, poor fit]	
CCc1ccc(NC(=O)C2(C)Cc3ccccc3C(=O)O2)cc1 (stereo unspecified)	active: 22.4 µM	
C/C(=N\Nc1nc(-c2ccccc2)cs1)c1cccs1	inconclusive [inhibitor, partial curve]	
C[N+]1(CC(=O)OC2CCCCCCCCCCC2)CCCC1		inactive: 2.95%
CCN1C(=O)/C(=C2/C(=O)N3c4c(cc(OC(C)=O)cc42)C(C)=CC3(C)C)SC1=S	inconclusive [inhibitor, full curve]	
O=C(Cc1cccs1)Nc1cc(SCCO)cc([N+](=O)[O-])c1		inactive: -13.2%
